Source: patent US8795997B2 (priority 2009, dated 2014)

System: baker's yeast (Saccharomyces cerevisiae)
Assay type: cell-based
Details: 6 h fermentation (FIG. 4)
Experimental: The pH of the sugarcane bagass and spruce hydrolysates were adjusted to 5.5 with a 5 M solution of sodium hydroxide. The conditioning of each hydrolysate was performed in eight 100-mL glass vessels equipped with magnetic stirrer bars. 26 mL hydrolysate was added to all vessels, and the vessels were placed on a magnetic stirrer plate (IKA-Werke, Staufen, Germany). Sodium dithionite (chemical grade; >87%, Merck, Darmstadt, Germany) was added to hydrolysates in the concentrations 5 and 10 mM. Additions of sodium sulphite to 5 and 10 mM were also performed. The additions were made at room temperature (23° C.) and the samples were kept for 10 min with stirring. The experiments were performed in duplicates.
The efficiency of the additions of the reducing agents was compared with alkali detoxification.
Ethanol measurements were performed by using an enzymatic kit (Ethanol UV-method, Boehringer Mannheim GmbH, Mannheim, Germany). Fermentation experiments were performed to evaluate the effectiveness of the additions and treatments. For comparison, untreated hydrolysates were included in the fermentation experiments as well as reference fermentations of sugar-based medium with an amount of fermentable sugars (i.e. glucose and mannose) corresponding to that in the hydrolysate samples. The fermentations were carried out using baker's yeast (Saccharomyces cerevisiae) (Jastbolaget AB, Rotebro, Sweden). […]

Row | Structure (SMILES) | Ethanol production from sugarcane bagass hydrolysate
1 | O=S([O-])S(=O)[O-].[Na+].[Na+] [Dithionite, Sodium dithionite] | high ethanol production
2 | O=S([O-])[O-].[Na+].[Na+] [Sulphite, sodium sulphite] | high ethanol production
